Laboratory results taken from the supplement of paper PMC6531468.
This is one part of the list. These are enrichments in a pooled selection; single values are uncertain. Scores sum up all selected molecules that hold the word; the word was not tested alone.

Experiments:
Assay in all cases: 6-mer SELEX enrichment z-score vs GST control; IMP3 is the RNA-binding protein IGF2BP3; higher = more enriched by binding
[1] = system: IMP3 KH1-4; details: construct: KH1-4 (164-579); SELEX round: R4
Protocol: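 SELEX-seq with GST-tagged IMP3 KH1-4 (Pro164-Lys579) and an N40 RNA pool, round 4. 6-mer z-score of sequence-tag enrichment normalised to the corresponding GST SELEX round; RNA k-mers written as DNA (T for U).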

[2] = system: IMP3 RRM1-2; details: construct: RRM1-2 (1-163); SELEX round: R2
IMP3 RRM1-2, sequence (chain, as listed by the source): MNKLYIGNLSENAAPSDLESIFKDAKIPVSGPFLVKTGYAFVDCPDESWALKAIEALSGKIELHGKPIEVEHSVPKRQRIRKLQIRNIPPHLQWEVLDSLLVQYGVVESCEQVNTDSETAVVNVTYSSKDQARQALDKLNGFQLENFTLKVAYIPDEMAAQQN
Protocol: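 SELEX-seq with GST-tagged IMP3 RRM1-2 (Met1-Asn163) and an N40 RNA pool, round 2. 6-mer enrichment z-score normalised to GST SELEX. RNA written as DNA (T = U).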

[3] = biological target: IMP3 full-length (UniProt O00425); details: construct: FL IMP3 (1-579); SELEX round: R4
UniProt O00425, sequence (O00425 whole entry): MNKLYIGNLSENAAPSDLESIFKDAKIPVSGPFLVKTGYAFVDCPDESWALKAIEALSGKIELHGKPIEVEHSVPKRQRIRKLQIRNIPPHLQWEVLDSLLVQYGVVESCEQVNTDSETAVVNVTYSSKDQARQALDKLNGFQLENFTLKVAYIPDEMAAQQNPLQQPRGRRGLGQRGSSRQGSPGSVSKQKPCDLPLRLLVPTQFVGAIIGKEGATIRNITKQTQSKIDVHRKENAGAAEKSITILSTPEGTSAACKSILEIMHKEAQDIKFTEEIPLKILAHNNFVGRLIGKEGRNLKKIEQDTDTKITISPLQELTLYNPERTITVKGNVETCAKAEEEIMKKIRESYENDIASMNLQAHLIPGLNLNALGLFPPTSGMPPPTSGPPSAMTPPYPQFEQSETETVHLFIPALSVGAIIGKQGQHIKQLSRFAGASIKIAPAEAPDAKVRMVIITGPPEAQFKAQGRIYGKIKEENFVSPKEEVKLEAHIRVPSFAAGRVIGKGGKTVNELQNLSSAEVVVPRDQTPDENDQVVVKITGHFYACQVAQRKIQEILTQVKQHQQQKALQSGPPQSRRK
Protocol: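 SELEX-seq with GST-tagged full-length IMP3 and an N40 RNA pool, round 4. Each 6-mer is scored as an enrichment z-score of sequence tags containing it, normalised to the matching GST SELEX round. RNA written as DNA (T = U).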

[4] = system: IMP3 KH1-2; details: construct: KH1-2 (164-376); SELEX round: R4
IMP3 KH1-2, sequence (chain, as listed by the source): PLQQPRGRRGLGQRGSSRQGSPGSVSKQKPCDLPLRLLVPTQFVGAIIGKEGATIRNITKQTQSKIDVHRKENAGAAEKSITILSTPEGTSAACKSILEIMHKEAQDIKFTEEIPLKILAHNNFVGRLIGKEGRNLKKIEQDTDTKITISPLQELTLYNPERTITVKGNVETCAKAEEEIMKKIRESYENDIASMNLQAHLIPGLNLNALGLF
Protocol: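 SELEX-seq with GST-tagged IMP3 KH1-2 (Pro164-Phe376) and an N40 RNA pool, round 4 (stringent 300/600 mM KCl washes). 6-mer z-score of sequence-tag enrichment normalised to the corresponding GST SELEX round; RNA k-mers written as DNA (T for U).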

[5] = system: IMP3 KH3-4; details: construct: KH3-4 (377-579); SELEX round: R4
IMP3 KH3-4, sequence (chain, as listed by the source): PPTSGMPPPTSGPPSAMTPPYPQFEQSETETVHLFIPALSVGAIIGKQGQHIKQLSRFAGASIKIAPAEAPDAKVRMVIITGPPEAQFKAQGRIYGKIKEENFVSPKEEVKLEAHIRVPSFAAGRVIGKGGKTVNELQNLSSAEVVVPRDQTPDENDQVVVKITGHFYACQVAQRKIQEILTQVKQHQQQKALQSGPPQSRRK
Protocol: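 SELEX-seq with GST-tagged IMP3 KH3-4 (Pro377-Lys579) and an N40 RNA pool, round 4. 6-mer z-score of sequence-tag enrichment normalised to the corresponding GST SELEX round; RNA k-mers written as DNA (T for U).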

IMP3 KH1-4, sequence (chain, as listed by the source): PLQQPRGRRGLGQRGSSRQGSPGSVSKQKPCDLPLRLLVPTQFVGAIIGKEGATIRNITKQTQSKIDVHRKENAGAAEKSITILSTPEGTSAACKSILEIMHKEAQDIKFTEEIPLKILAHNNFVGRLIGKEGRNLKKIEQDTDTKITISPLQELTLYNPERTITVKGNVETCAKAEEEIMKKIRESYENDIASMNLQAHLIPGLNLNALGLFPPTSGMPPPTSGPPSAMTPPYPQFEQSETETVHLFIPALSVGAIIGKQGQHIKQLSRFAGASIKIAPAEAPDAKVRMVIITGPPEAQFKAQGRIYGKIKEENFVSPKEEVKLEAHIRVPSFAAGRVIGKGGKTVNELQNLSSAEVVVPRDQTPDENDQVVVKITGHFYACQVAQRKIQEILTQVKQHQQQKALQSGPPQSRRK

Sequence | 6-mer SELEX enrichment z-score [1] | 6-mer SELEX enrichment z-score [2] | 6-mer SELEX enrichment z-score [3] | 6-mer SELEX enrichment z-score [4] | 6-mer SELEX enrichment z-score [5]
ATGAAA | 1.41 | -1.7 | -0.854 | 0.975 | 2.77
AGACGC | -0.653 | -0.505 | -0.384 | -0.449 | -0.626
CAGCCT | -0.406 | 0.047 | -0.008 | -0.352 | -0.625
GGCGAT | 0.113 | 0.125 | 0.683 | 0.133 | 0.538
AACGAC | -1.33 | -1.49 | -1.59 | -1.34 | -1.62
CGGTAG | -0.253 | 0.08 | 0.021 | -0.235 | -0.105
AGATAG | 0.566 | -0.414 | -0.046 | 0.514 | 0.942
ACATGG | 1.29 | 0.836 | 1.28 | 0.889 | 1.16
TACAAC | 0.803 | 0.769 | 0.565 | 1.19 | 0.571
CCTTAT | 0.769 | 0.032 | -0.122 | 0.564 | 0.611
